The other results are listed elsewhere or left out. One pool of 16,384 single-stranded DNAs met each Rep nickase domain in vitro (1 h at 37 °C, 3 µM enzyme); the outer parts of the 90-letter strands are left off. The score is log2 (uncut reads / reads without enzyme); the lower, the more was cut; hits are not called. Shares of all reads are compared, so uncut sequences can rise above 0 when many others are cut.
Tests used:
Experiment in all cases: uncleaved DNA left, log2 of reads against the no-enzyme library (log2 ratio); higher = less cleavage (more negative = more Rep cleavage of the k-mer); sequences stand for … in CTCGTCCG…ACCGGAGA
[1] = system: T1, Rep nickase domain of Muscovy duck circovirus
T1 sequence (residues 1-111, tag not shown): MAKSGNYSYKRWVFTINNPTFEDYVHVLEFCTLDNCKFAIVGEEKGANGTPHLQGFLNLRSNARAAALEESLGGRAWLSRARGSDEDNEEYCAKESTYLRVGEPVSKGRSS
Method: (§1)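 A pool of 90-nt single-stranded DNAs with seven random bases just before the constant AC of the nick site (name = the seven bases) was cut by 3 µM recombinant His6-SUMO-tagged Rep nickase domain (300 nM DNA, 50 mM HEPES pH 8.0, 50 mM NaCl, 1 mM MnCl2, 1 h, 37 °C, three replicates). Uncut DNA was amplified and sequenced.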

[2] = system: T2, Rep nickase domain of banana bunchy top virus
T2 sequence (residues 1-94, tag not shown): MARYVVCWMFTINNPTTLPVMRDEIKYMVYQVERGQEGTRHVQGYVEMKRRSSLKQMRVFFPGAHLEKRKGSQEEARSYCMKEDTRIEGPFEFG
Method: as §1

[3] = system: T3, Rep nickase domain of cabbage leaf curl virus
T3 sequence (residues 1-116, tag not shown): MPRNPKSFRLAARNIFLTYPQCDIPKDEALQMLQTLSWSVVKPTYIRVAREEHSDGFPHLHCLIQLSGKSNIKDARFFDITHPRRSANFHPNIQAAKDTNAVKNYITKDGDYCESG
Method: as §1

[4] = system: T4, Rep nickase domain of chickpea chlorotic dwarf virus
T4 sequence (residues 1-124, tag not shown): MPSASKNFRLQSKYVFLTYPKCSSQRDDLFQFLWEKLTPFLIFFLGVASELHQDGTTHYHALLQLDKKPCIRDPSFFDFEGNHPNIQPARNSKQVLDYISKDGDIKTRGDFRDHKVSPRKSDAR
Method: as §1

[5] = system: T5, Rep nickase domain of faba bean necrotic yellows virus
T5 sequence (residues 1-98, tag not shown): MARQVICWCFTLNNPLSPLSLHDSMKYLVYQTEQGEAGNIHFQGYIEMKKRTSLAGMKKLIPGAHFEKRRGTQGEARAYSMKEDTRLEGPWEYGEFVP
Method: as §1

[6] = system: T6, Rep nickase domain of maize striate mosaic virus
T6 sequence (residues 1-117, tag not shown): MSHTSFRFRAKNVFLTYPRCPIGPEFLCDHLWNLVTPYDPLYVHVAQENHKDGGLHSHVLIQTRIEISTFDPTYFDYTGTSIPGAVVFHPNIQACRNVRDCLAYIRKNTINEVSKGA
Method: as §1

[7] = system: T7, Rep nickase domain of porcine circovirus 2
T7 sequence (residues 2-116, tag not shown): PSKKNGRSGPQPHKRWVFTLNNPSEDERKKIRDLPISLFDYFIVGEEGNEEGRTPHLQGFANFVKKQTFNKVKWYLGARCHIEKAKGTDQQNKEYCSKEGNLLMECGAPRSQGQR
Method: as §1

[8] = system: T8, Rep nickase domain of tomato yellow leaf curl virus
T8 sequence (residues 1-136, tag not shown): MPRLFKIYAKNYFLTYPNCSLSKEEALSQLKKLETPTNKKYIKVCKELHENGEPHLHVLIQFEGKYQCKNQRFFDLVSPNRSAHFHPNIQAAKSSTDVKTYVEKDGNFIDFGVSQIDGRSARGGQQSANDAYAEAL
Method: as §1

[9] = system: T9, Rep nickase domain of wheat dwarf virus
T9 sequence (residues 1-137, tag not shown): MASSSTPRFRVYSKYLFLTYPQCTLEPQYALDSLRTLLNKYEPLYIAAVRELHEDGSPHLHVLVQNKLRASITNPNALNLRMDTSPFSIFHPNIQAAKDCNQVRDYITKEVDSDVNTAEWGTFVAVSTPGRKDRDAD
Method: as §1

| Sequence | uncleaved DNA left (log2) [1] | uncleaved DNA left (log2) [2] | uncleaved DNA left (log2) [3] | uncleaved DNA left (log2) [4] | uncleaved DNA left (log2) [5] | uncleaved DNA left (log2) [6] | uncleaved DNA left (log2) [7] | uncleaved DNA left (log2) [8] | uncleaved DNA left (log2) [9] |
| --- | --- | --- | --- | --- | --- | --- | --- | --- | --- |
| CAGTTTG | 0.0122 | -0.096 | -0.596 | -0.755 | -0.0218 | -1.01 | -1.28 | -0.0799 | -0.0656 |
| GAAATGA | -0.0306 | 0.00955 | 0.254 | 0.439 | 0.00312 | 0.37 | 0.0874 | 0.0111 | -0.0617 |
| AAGATGG | 0.153 | 0.112 | -0.0836 | 0.0587 | 0.0236 | -0.486 | 0.151 | -0.0827 | -0.00546 |
| CCAAGGC | -0.112 | -0.0698 | -0.186 | 0.00634 | -0.0645 | -0.872 | -0.0341 | -0.0714 | -0.191 |
| TCCAAGG | 0.128 | -0.0294 | 0.532 | 1.44 | 0.0611 | 1.77 | 0.19 | -0.0798 | 0.132 |
| TCTTATC | -0.0454 | 0.0668 | 0.401 | 0.683 | 0.0665 | 0.32 | -0.0518 | 0.0882 | 0.127 |
| AAGGGCT | -0.0233 | -0.0176 | 0.137 | 0.774 | -0.0695 | 1.07 | 0.0375 | -0.00367 | 0.019 |
| GGCCTCG | 0.0587 | 0.0782 | -0.125 | -0.107 | -0.0712 | -0.319 | 0.0352 | 0.0492 | 0.0146 |
| CATTTGC | 0.0438 | -0.04 | -0.817 | -0.41 | 0.107 | -1.26 | 0.0821 | -0.00552 | -0.0783 |
| CTTACAT | 0.0406 | 0.0742 | 0.13 | -1.65 | -0.0905 | 0.076 | -0.0668 | 0.0759 | 0.0979 |
| ATTCTAA | -0.0962 | -0.109 | -0.0672 | -0.329 | -0.0441 | -0.548 | -0.0072 | -0.00489 | -0.186 |
| CGACAGT | 0.0587 | 0.0584 | 0.165 | 0.768 | 0.117 | 1.51 | -0.0105 | 0.0686 | 0.206 |
| TCTTTTA | -0.0576 | -0.00788 | 0.109 | -1.38 | 0.0242 | -0.243 | -0.434 | 0.018 | -0.0387 |
| CGTATGT | -0.0924 | -0.0863 | -0.075 | -0.0456 | 0.00934 | -0.136 | -0.507 | -0.104 | -0.0111 |
| AGTGGTC | -0.018 | 0.0138 | 0.139 | 0.403 | -0.0328 | 0.604 | -0.0231 | -0.0871 | -0.0578 |
| AACAACC | -0.125 | -0.0507 | -0.126 | -2.05 | -0.0625 | -0.657 | -0.628 | -0.0562 | -0.00187 |
| GCGTAAT | -0.532 | -0.0864 | 0.0748 | 0.198 | -0.281 | 0.541 | -2.69 | 0.147 | 0.0253 |
| TGTGTTA | -0.167 | -0.0877 | 0.183 | 0.468 | -0.135 | 1.3 | -0.123 | -0.0827 | -0.0731 |
| TGCCACT | 0.0977 | 0.0462 | 0.0977 | -1.21 | -0.0268 | 0.163 | -0.139 | -0.0666 | 0.0358 |
| ATAAGGT | -0.00113 | -0.0136 | -1.52 | -1.17 | -0.0511 | 1.21 | 0.123 | -0.19 | -0.082 |
| GGAGCAC | 0.0427 | 0.0955 | 0.879 | 1.83 | -0.00112 | 2.13 | 0.264 | 0.0872 | 0.231 |
| CGGCTAC | 0.0407 | -0.00493 | 0.0952 | -0.0572 | -0.174 | 0.513 | 0.125 | 0.0473 | 0.0585 |
| TAATAGA | -0.106 | -0.0299 | -2.41 | -2.31 | 0.126 | -1.29 | -0.11 | 0.135 | -0.642 |
| TATTTAA | -2.84 | -0.32 | 0.0834 | -0.427 | 0.0344 | -0.244 | -1.05 | -0.0099 | 0.0853 |
| AACCTGG | 0.137 | 0.117 | 0.0897 | 0.0431 | 0.132 | -0.612 | 0.0521 | 0.0302 | 0.0855 |
| AAAAGTC | 0.0988 | 0.159 | -0.954 | -1.02 | 0.133 | -0.855 | 0.161 | 0.0389 | -0.0813 |
| CTTTTAG | 0.0546 | -0.201 | -0.9 | -0.254 | 0.00272 | -1.22 | 0.193 | -0.089 | -0.146 |
| ATAGTGC | -0.0474 | 0.0219 | -0.673 | -0.63 | -0.00361 | -1.36 | 0.124 | 0.0272 | -0.0393 |
| TATAATA | -0.0192 | -0.0324 | -0.147 | -2.71 | 0.0711 | -0.523 | -0.204 | 0.00916 | -0.0107 |
| TCTCCCA | -0.0788 | 0.0201 | 0.128 | -0.559 | 0.0302 | 0.38 | -1.25 | 0.022 | -0.00062 |

Source: the supplement of paper PMC7826260
